The supplement of paper PMC3334620
Over roughly 33,000 sequences, “E-score (-0.5 to 0.5)” has its median near -0.01; the highest 2% begin near 0.26. Some of the results follow.

The sequences below were run against Ste12 (UniProt P13574) (assay: PBM E-score (8-mer binding enrichment) (E-score (-0.5 to 0.5)); higher = stronger / more preferred TF binding; most listed sequences are background and not binding sites). Conditions: protein concentration: 200 nM; construct: GST-DNA-binding domain.
Protocol: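 Universal 'all 10-mer' protein binding microarrays (Agilent AMADID 015681) probed with GST-tagged S. cerevisiae TFs (full-length or DBD) made by in vitro transcription/translation (PURExpress), about 100-200 nM. Bound TF was detected with fluorescent anti-GST. Each ungapped 8-mer (which stands for itself and its reverse complement) is scored by the PBM enrichment score (E-score), a modified Wilcoxon-Mann-Whitney statistic from -0.5 to +0.5, computed with the Universal PBM Analysis Suite. Scale: above 0.35 generally sequence-specific binding.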
For GAGGTACA, the “PBM E-score” value was -0.16.
In the case of CTCGTCGA, the “PBM E-score” value is reported as -0.154.
In the case of GCCTCCCC, the “PBM E-score” value is reported as 0.305.
In the case of AACTGAAT, the “PBM E-score” value is reported as 0.0596.
With AACTATCT the “PBM E-score” value was 0.12.
For CCCCCTGC, the “PBM E-score” value was -0.219.
In the case of CTGAGCAC, the “PBM E-score” value is reported as -0.199.
For AGTCCTGC, the “PBM E-score” value was -0.196.
In the case of ATAAACTC, the “PBM E-score” value is reported as 0.125.
In the case of ACCTATTA, the “PBM E-score” value is reported as 0.0333.
For ACAAGCCA, the “PBM E-score” value was -0.0754.
With CAGTATCG the “PBM E-score” value was 0.00517.
With CCATGACA the “PBM E-score” value was 0.0963.
With CTGCTGGA the “PBM E-score” value was -0.0315.
With CCCTGGCG the “PBM E-score” value was -0.153.
CTCGTGCC was tested, and the “PBM E-score” value was -0.244.
In the case of AGGCAATG, the “PBM E-score” value is reported as -0.152.
For ATTCATAA, the “PBM E-score” value was 0.205.
CCGCACAG was tested, and the “PBM E-score” value was -0.00432.
With CGGCAAGC the “PBM E-score” value was -0.0423.
With AGGGTGAC the “PBM E-score” value was -0.0433.
With GACCTTAA the “PBM E-score” value was -0.0226.
CTATATCC was tested, and the “PBM E-score” value was -0.0647.
With ATATCCTC the “PBM E-score” value was 0.0379.
For CGACATTC, the “PBM E-score” value was 0.00586.
With AGAGTACT the “PBM E-score” value was -0.193.
For CAACTTGG, the “PBM E-score” value was -0.0701.
In the case of AGGGTGAG, the “PBM E-score” value is reported as -0.127.
In the case of ATGATACG, the “PBM E-score” value is reported as 0.25.
With CTCTGGCC the “PBM E-score” value was 0.0202.
GTGACCAA was tested, and the “PBM E-score” value was 0.175.
With TGTACCAA the “PBM E-score” value was -0.0484.
For ACCGGCCG, the “PBM E-score” value was -0.0444.
With GAACCCAC the “PBM E-score” value was -0.0413.
In the case of CATTTCTA, the “PBM E-score” value is reported as 0.189.
With AGAGTTGA the “PBM E-score” value was -0.0346.
In the case of AGATTTCG, the “PBM E-score” value is reported as 0.0485.
In the case of GACGGGAA, the “PBM E-score” value is reported as -0.0951.
In the case of GAAGTCCC, the “PBM E-score” value is reported as -0.195.
With AAACACGT the “PBM E-score” value was 0.18.
With AGGTGGAA the “PBM E-score” value was 0.00669.
With CCTATAAG the “PBM E-score” value was 0.0662.
For ACAAGTCG, the “PBM E-score” value was -0.174.
ACAGATCC was tested, and the “PBM E-score” value was 0.111.
AGTTTAGA was tested, and the “PBM E-score” value was 0.175.
With AGGATACC the “PBM E-score” value was -0.182.
For AGGCACTA, the “PBM E-score” value was -0.0882.
For ATACGTCC, the “PBM E-score” value was -0.16.
With AGCTAGCG the “PBM E-score” value was -0.0094.
With AATCAATT the “PBM E-score” value was 0.176.
In the case of AATTCTAG, the “PBM E-score” value is reported as 0.253.
In the case of CAAGCAAC, the “PBM E-score” value is reported as -0.158.
For ACCGAAGA, the “PBM E-score” value was -0.0162.
With CTCGGCAA the “PBM E-score” value was 0.0666.
In the case of GTAACGTA, the “PBM E-score” value is reported as 0.026.
With CTTTATCC the “PBM E-score” value was -0.0182.
For ATTGGCTA, the “PBM E-score” value was -0.198.
In the case of ACAGCGCA, the “PBM E-score” value is reported as -0.0296.
In the case of ATCCGGCG, the “PBM E-score” value is reported as -0.0194.
For ATACGGAT, the “PBM E-score” value was -0.116.
For AAAGAAGC, the “PBM E-score” value was 0.0592.
For CCTCCTTC, the “PBM E-score” value was -0.0212.
In the case of CCAAGCGC, the “PBM E-score” value is reported as -0.00357.
For AAATCCAT, the “PBM E-score” value was 0.153.
With AGCTACAG the “PBM E-score” value was -0.143.
For ATGTGAAT, the “PBM E-score” value was 0.171.
AGTTTACA was tested, and the “PBM E-score” value was 0.125.
With GGTAATCA the “PBM E-score” value was -0.0052.
CTTGCGTC was tested, and the “PBM E-score” value was -0.164.
TAAAAGGA was tested, and the “PBM E-score” value was 0.0696.
For CCGACTCC, the “PBM E-score” value was 0.0532.
For GAGCTTGC, the “PBM E-score” value was -0.225.
In the case of ACAATTGG, the “PBM E-score” value is reported as -0.226.
For AACATTTC, the “PBM E-score” value was 0.0303.
GACGTGGA was tested, and the “PBM E-score” value was -0.21.
In the case of AAGTAGCC, the “PBM E-score” value is reported as 0.0303.
For AGAGAGAC, the “PBM E-score” value was -0.105.
For GCGAATTA, the “PBM E-score” value was 0.0563.
TCGCGGAA was tested, and the “PBM E-score” value was -0.0362.
For GAATCTGC, the “PBM E-score” value was 0.0541.
GGACTATA was tested, and the “PBM E-score” value was 0.0221.
In the case of AGGTACCG, the “PBM E-score” value is reported as 0.0438.
In the case of CGAATTGC, the “PBM E-score” value is reported as -0.0272.
CTACCCCC was tested, and the “PBM E-score” value was -0.14.
With GAGCCGCA the “PBM E-score” value was -0.112.
For CCGACCGA, the “PBM E-score” value was -0.131.
In the case of ATTAGCAC, the “PBM E-score” value is reported as 0.0722.
For GGACTGCC, the “PBM E-score” value was -0.119.
CAGCACTC was tested, and the “PBM E-score” value was -0.0353.
ATCGGGTC was tested, and the “PBM E-score” value was 0.0807.
CCGGGAAC was tested, and the “PBM E-score” value was -0.015.
In the case of ATTCTTAA, the “PBM E-score” value is reported as 0.155.
In the case of CCCTTGCC, the “PBM E-score” value is reported as -0.0578.
With CGTCTTTA the “PBM E-score” value was 0.00222.
In the case of GATTTTGC, the “PBM E-score” value is reported as -0.044.
For GCGACACC, the “PBM E-score” value was -0.0458.
With ACCCCTTC the “PBM E-score” value was -0.0377.
For CATCGCCG, the “PBM E-score” value was -0.0762.
With CCACCGGC the “PBM E-score” value was -0.2.
For GCCATACC, the “PBM E-score” value was -0.112.
With CGGACTAG the “PBM E-score” value was -0.0897.
CCCTTTTA was tested, and the “PBM E-score” value was -0.119.
In the case of AGGATAGG, the “PBM E-score” value is reported as 0.00531.
With GAGTTATA the “PBM E-score” value was 0.0966.
GGCGAGGA was tested, and the “PBM E-score” value was -0.178.
For TCGTCAGA, the “PBM E-score” value was -0.157.
In the case of GCTATCCA, the “PBM E-score” value is reported as 0.013.
GCGGCAAC was tested, and the “PBM E-score” value was -0.0599.
For ACATGCGA, the “PBM E-score” value was -0.0184.
For ACTGATCT, the “PBM E-score” value was -0.0332.
For GAGGACAC, the “PBM E-score” value was -0.18.
For ACCTCCAC, the “PBM E-score” value was -0.0491.
With CGTTAGAG the “PBM E-score” value was -0.0564.
ATGTGGTA was tested, and the “PBM E-score” value was 0.0215.
For GCGAGAGA, the “PBM E-score” value was -0.0352.
ATCAGGGG was tested, and the “PBM E-score” value was -0.128.
For AGAAGGGC, the “PBM E-score” value was -0.223.
For GGCACATA, the “PBM E-score” value was 0.0754.
In the case of GCGCAATA, the “PBM E-score” value is reported as -0.0201.
For CAGCGAAC, the “PBM E-score” value was 0.0308.
GGAGGCAA was tested, and the “PBM E-score” value was -0.187.
In the case of AGGTCGAG, the “PBM E-score” value is reported as -0.118.
GTGTCCCA was tested, and the “PBM E-score” value was 0.115.
ATCGGCTG was tested, and the “PBM E-score” value was -0.136.
In the case of CGTGGACC, the “PBM E-score” value is reported as -0.285.
AGTTTTTC was tested, and the “PBM E-score” value was 0.162.
With AACGCAGA the “PBM E-score” value was -0.0953.
AGAGATAA was tested, and the “PBM E-score” value was 0.164.
With CACACACG the “PBM E-score” value was 0.13.
In the case of CGTTGCCA, the “PBM E-score” value is reported as -0.0755.
In the case of GGGCTGAA, the “PBM E-score” value is reported as 0.0188.
In the case of ATCGATTC, the “PBM E-score” value is reported as -0.0473.
With CCATCAGG the “PBM E-score” value was -0.0848.
ATATAAGG was tested, and the “PBM E-score” value was 0.0591.
TATCACGA was tested, and the “PBM E-score” value was 0.0822.
GTAAGAAC was tested, and the “PBM E-score” value was -0.0389.
In the case of CTCGTAAC, the “PBM E-score” value is reported as 0.113.
AATTTCAA was tested, and the “PBM E-score” value was 0.106.
With ACAAACCT the “PBM E-score” value was -0.111.
For CCGCTAGG, the “PBM E-score” value was -0.207.
With CACCACAA the “PBM E-score” value was 0.0252.
In the case of GTATGCTA, the “PBM E-score” value is reported as 0.0557.
For ACGTCGCA, the “PBM E-score” value was 0.0801.
In the case of ACTGGGCA, the “PBM E-score” value is reported as -0.199.
CGGGCACG was tested, and the “PBM E-score” value was -0.0656.
With AACCTTCT the “PBM E-score” value was -0.183.
GTAATATA was tested, and the “PBM E-score” value was 0.149.
CGGATCAA was tested, and the “PBM E-score” value was 0.144.
For CTCTCATC, the “PBM E-score” value was -0.19.
CCCGGATA was tested, and the “PBM E-score” value was -0.0895.
With CGTCCACA the “PBM E-score” value was -0.0571.
With CCGCCGCA the “PBM E-score” value was 0.119.
CAGGAGGG was tested, and the “PBM E-score” value was 0.0176.
GTCCCATA was tested, and the “PBM E-score” value was -0.0447.
With ATGATTTA the “PBM E-score” value was 0.255.
ACACCGAC was tested, and the “PBM E-score” value was 0.0479.
For GGCAAATA, the “PBM E-score” value was 0.162.
For CATCGGGA, the “PBM E-score” value was -0.0614.
In the case of AGCGGAGC, the “PBM E-score” value is reported as -0.159.
With GGGCGTTA the “PBM E-score” value was 0.15.
With GTCCGACA the “PBM E-score” value was -0.00141.
With TAGTCTGA the “PBM E-score” value was -0.102.
For CGGACACC, the “PBM E-score” value was -0.184.
In the case of CGTAGAGC, the “PBM E-score” value is reported as -0.205.
With CCATTCGA the “PBM E-score” value was -0.0588.
GACGGTGA was tested, and the “PBM E-score” value was 0.0426.
With GGAACACC the “PBM E-score” value was -0.0232.
With AGAACTAA the “PBM E-score” value was 0.0814.
With ATCGACGG the “PBM E-score” value was 0.0442.
With GACCCTCC the “PBM E-score” value was -0.0204.
In the case of TCAACGCA, the “PBM E-score” value is reported as 0.0262.
GCAACCAA was tested, and the “PBM E-score” value was 0.112.
